The source gives no read counts; variants with many changes may rest on few reads.
B1: LINE1-mini (parent)
chain: GGCAGAGCUCAACACAGCGUGGCAAAGUGGCUGUGGCUAGACUGCC

Variants of: B1
Assay: self-cleavage, relative activity (ratio to wild type); higher = more cleavage; in vitro, sequencing; the parent is a self-cleaving ribozyme
Work on G2U C23A C45A yielded a self-cleavage of 0.31. For C13U G17C U20A C45G, the self-cleavage was 0.03. G1A C13U A26C showed a self-cleavage of 0.7. With C3U A4C A11U A25C the self-cleavage was 0.06. Variant C3A A12C C31G has a self-cleavage of 0.02. Work on C10A C18A G22A C46A yielded a self-cleavage of 0.04. Work on C8U C10U C45G yielded a self-cleavage of 0.02. With U9G G21A G27A the self-cleavage was 0.03. With C15G C18U G22U G35A A39U the self-cleavage was 0.04. For G17C G30C G35A, the self-cleavage was 0.02. With G35U G36U U38C the self-cleavage was 0.03. C3G G22U G30A G40U gave a self-cleavage of 0.09. G21A G27U G35A U38A gave a self-cleavage of 1.27. For G21C G22C C23G, the self-cleavage was 0.23. G1U C3A G35U U38C gave a self-cleavage of 0.23. With G2U C10G G19A A24G A26G the self-cleavage was 0. G21U C23G U34C showed a self-cleavage of 0.1. In the case of G7C U32A G36U, the self-cleavage is reported as 0.33. Work on C8U U9C G17C G29U yielded a self-cleavage of 0.1. Work on G2A A14G C15A G21A G29U yielded a self-cleavage of 0.23. For C8A C18U U28G, the self-cleavage was 0.07. In the case of U9C C23A G29C C46G, the self-cleavage is reported as 0. C15U U20G U28C G29A U38G C42A gave a self-cleavage of 0.05. In the case of G5A U20C G30U G44A, the self-cleavage is reported as 0.05. Variant A12U C23G G35U has a self-cleavage of 0.14. Variant A4U A12C C37A has a self-cleavage of 0.01. G7U A16C G44U showed a self-cleavage of 0.33. G1C A4U G5A G29U gave a self-cleavage of 0.1. G7U G22U U28C U43A showed a self-cleavage of 0.36. For U9G G30A G33A, the self-cleavage was 0.08. Work on G5A C31A U34A yielded a self-cleavage of 0.04. A6G G7A C10A C23G showed a self-cleavage of 0.02. In the case of G1A G2C C31A, the self-cleavage is reported as 0.23. In the case of G1U C10U A12C U38G, the self-cleavage is reported as 0.01. For G5C C10G G17U, the self-cleavage was 0.04. A12U C18A A25U gave a self-cleavage of 0.37. Variant C10A G21A A26U has a self-cleavage of 0. In the case of C31G G33U U43C C45U, the self-cleavage is reported as 0.18. With A4U C13G A14C C18A the self-cleavage was 0.04. G5U U20C C45A gave a self-cleavage of 0.08. A12C U38A C45U gave a self-cleavage of 0.02. C8G U9A A12C gave a self-cleavage of 0.06. In the case of C13G C23A C31A, the self-cleavage is reported as 0.03. For C3U G5U C8U C31G G36C, the self-cleavage was 0.23. For G5U C10G A12G C37A, the self-cleavage was 0. In the case of U9A A24C C31G G36A A39U, the self-cleavage is reported as 0.02. Work on G2A C3A A6G C8A U32A U38A G40A yielded a self-cleavage of 0.13. In the case of G22A U32C C42G, the self-cleavage is reported as 0.13. With C18G A25U U38C the self-cleavage was 0.11. A25U A26C G40A showed a self-cleavage of 0.05. A4U A6G A11G U20G gave a self-cleavage of 0.05. A11U G21U G33C C37U gave a self-cleavage of 0. G21U U28A U38C gave a self-cleavage of 0.2. For G21A A26G G35A, the self-cleavage was 0.04. In the case of A4U G7A G35U, the self-cleavage is reported as 0.39. With C13A G17C G27C the self-cleavage was 0.08. Variant G7U A26U C37U has a self-cleavage of 0.01. For G22C C23G A24C, the self-cleavage was 0.28. For C8A A12G G40A U43C, the self-cleavage was 0.07. Work on G5U A6G G22C G27A yielded a self-cleavage of 0.03. For G2C A12G G21U U28A, the self-cleavage was 0.02. For G2A A4U G19A A24U A26U G33C U38C, the self-cleavage was 0.05. In the case of C3A A16U C31A, the self-cleavage is reported as 0.15. For C3A C10A G21A C31A, the self-cleavage was 0.05. Variant A6U A11U G21U has a self-cleavage of 0.14. G1C A25G U32C U38C G40A showed a self-cleavage of 0.01. C31U U38C A41C gave a self-cleavage of 0.03. Variant A24G A25C C31A A41G has a self-cleavage of 0.02. Variant C3U G5A C8A U20C G33A U38C has a self-cleavage of 0.17. For C8U C15A G19A, the self-cleavage was 0.03. With G1U A16G A41C the self-cleavage was 0.02. C10G G35A C45A gave a self-cleavage of 0.04. Work on G21U G27C G40C yielded a self-cleavage of 0.2. Variant G19C A24U U38G A39G C42U has a self-cleavage of 0. G27A G35U C37A gave a self-cleavage of 0.13. U9C C10U A12U A14C G27U G29C showed a self-cleavage of 0. G2U C13A C18U A26C G29U U34A gave a self-cleavage of 0.02. A6C G19U U32C A41U showed a self-cleavage of 0.17. For G29A C37U C42U, the self-cleavage was 0.07. Variant A4G C8A G22U G35A has a self-cleavage of 0.33. A6U G29U G35U gave a self-cleavage of 0.06. In the case of G2C G17A A26G G27U, the self-cleavage is reported as 0.06. C8G G21U G40C gave a self-cleavage of 0.

Source: the RNAGym collection of RNA variant scans (doi:10.7554/elife.90254)
